From the supplement of paper PMC4967469
A lower IC50 marks a more sensitive line; a limit (>, <) means that the fit lies beyond the doses tested. AUC sums up the same curve from the lowest dose to the 256-fold higher top dose; the more sensitive the line, the further below 1. For some assays here: The top dose, if marked as inferred, was calculated from the reported fits. For some assays here: An entry number marks a drug with two screens in the source, which often give different values.

Experiments:
Assay in all cases: Viability of human cancer cell lines after 72 h of drug (GDSC screen)
[1] = compound: Cc1cccc(-c2[nH]c(C(C)(C)C)nc2-c2ccc3c(c2)OCO3)n1 [SB-505124]; settings: top dose 10 µM; top dose inferred
Procedure: (§1)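 Human cancer cell lines in 384-well plates, medium with 10% serum, drug for 72 h over a 256-fold dose range (nine 2-fold or five 4-fold steps up to the top dose). Adherent lines were fixed and stained with the nucleic acid dye Syto60, suspension lines read with resazurin; signal relative to control wells, capped at 0 and 100%. One two-parameter sigmoid per drug and line, fitted in a mixed model over all curves with the slope shared within a line.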

[2] = compound: CCn1c(-c2nonc2N)nc2c(C#CC(C)(C)O)ncc(OC[C@H]3CCCNC3)c21 [GSK690693]; settings: top dose 10.24 µM; top dose inferred
Procedure: as §1

[3] = compound: Oc1cccc(-c2nc(N3CCOCC3)c3oc4ncccc4c3n2)c1 [PI-103]; settings: top dose 10.24 µM
Procedure: as §1

[4] = compound: COc1cc2c(NC3CCN(C(C)C)CC3)nc(C3CCCCC3)nc2cc1OCCCN1CCCC1 [UNC0638]
Procedure: as §1

[5] = top dose 20 µM, screen: GDSC drug entry 1236, top dose inferred
[6] = top dose 40 µM, screen: GDSC drug entry 245

Cell Line	AUC [1]	IC50 [1] [µM]	AUC [2]	IC50 [2] [µM]	AUC [3]	IC50 [3] [µM]	AUC [4, 5]	IC50 [4, 5] [µM]	AUC [4, 6]	IC50 [4, 6] [µM]
769-P (kidney, adherent)	0.944	> 10	0.957	> 10.2	0.461	0.497	0.794	10.2	0.766	16.1
A204 (rhabdomyosarcoma, adherent)	0.944	> 10	0.883	> 10.2	0.411	0.34	0.75	8.24	0.704	11.3
BEN (non-small cell lung carcinoma, adherent)	0.982	> 10	0.986	> 10.2	0.559	0.952	0.952	> 20	0.813	25.5
BFTC-909 (kidney, adherent)	0.947	> 10	0.988	> 10.2	0.9	> 10.2	0.938	> 20	0.875	37.7
BICR31 (head and neck, adherent)	–	–	0.987	> 10.2	0.862	8.9	–	–	0.969	> 40
CAMA-1 (breast, adherent)	0.98	> 10	0.839	9.71	0.634	1.65	0.982	> 20	0.909	> 40
COLO-792 (melanoma, adherent)	0.957	> 10	0.948	> 10.2	0.387	0.315	0.827	12	0.954	> 40
COR-L105 (lung adenocarcinoma, adherent)	0.973	> 10	0.93	> 10.2	0.823	7.9	0.907	> 20	0.701	10.5
COR-L303 (small cell lung carcinoma, suspension)	–	–	0.828	6.03	0.338	0.231	–	–	0.58	4.11
COR-L311 (small cell lung carcinoma, suspension)	–	–	0.331	0.209	0.205	0.0795	–	–	–	–
Caov-3 (ovary, adherent)	–	–	0.991	> 10.2	0.983	> 10.2	–	–	0.785	15
GCT (soft tissue, adherent)	0.988	> 10	0.989	> 10.2	0.988	> 10.2	0.719	4.95	0.936	> 40
GP5d (large intestine, adherent)	0.99	> 10	0.946	> 10.2	0.966	> 10.2	0.99	> 20	0.851	25.9
H2803 (mesothelioma, adherent)	0.983	> 10	0.985	> 10.2	0.981	> 10.2	0.872	> 20	0.872	> 40
H2804 (mesothelioma, adherent)	0.984	> 10	0.977	> 10.2	0.932	> 10.2	0.836	15.1	0.793	20.3
H2818 (mesothelioma, adherent)	0.986	> 10	0.982	> 10.2	0.98	> 10.2	0.975	> 20	0.891	> 40
HO-1-N-1 (head and neck, adherent)	0.987	> 10	0.988	> 10.2	0.871	8.31	0.948	> 20	0.867	31.1
HPAC (pancreas, adherent)	0.9	> 10	0.975	> 10.2	0.97	> 10.2	0.965	> 20	0.91	> 40
HPAF-II (pancreas, adherent)	0.915	> 10	0.979	> 10.2	0.906	> 10.2	0.923	> 20	0.902	> 40
HSC-3 (head and neck, adherent)	0.968	> 10	0.99	> 10.2	0.888	8.65	0.735	5.19	0.867	27.6
HTC-C3 (thyroid, adherent)	0.982	> 10	0.979	> 10.2	0.453	0.47	0.904	> 20	0.896	> 40
Hs940-T (melanoma, adherent)	0.965	> 10	0.979	> 10.2	0.6	1.28	0.981	> 20	0.93	> 40
IM-95 (stomach, adherent)	0.984	> 10	0.741	3.32	0.9	> 10.2	0.969	> 20	0.801	21.1
